The shares of active, inactive and inconclusive entries below differ from those in the screen. No potency is given beside an inconclusive call; the fits are too rough. The source made the active and inactive calls. Unless noted, calls follow the shape of the dose curve; as a rule, active = well fitted curve in the direction sought with a large enough effect in the repeat runs; inconclusive = weak or mixed curves; inactive = no such curve, though single readings can be large; an effect the other way counts as inactive or inconclusive.
Legend:
[1] = qHTS assay for small molecules that induce genotoxicity in human embryonic kidney cells expressing luciferase-tagged ATAD5 - cell viability (AID 651634; calls by dose curve; also: nearly all actives have a fitted effect of over 25% in size)
How it was run: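 15.5 hr compound or vehicle exposure of HEK293T cells expressing luciferase-tagged ATAD5 at 37C; live-cell protease activity is read by fluorescence after 30 min of CellTiter-Fluor.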

[2] = qHTS assay for small molecule agonists of the p53 signaling pathway - cell viability (AID 651633; calls by dose curve; also: nearly all actives have a fitted effect of over 30% in size)
How it was run: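 p53RE-bla cells, seeded at 4,000 per well and rested 5 h at 37 C/5% CO2, received compounds in DMSO for 16 h at 37 C. CellTiter-Glo was then added, and luminescence was read after 30 min at room temperature to gauge cytotoxicity.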

[3] = qHTS assay to identify small molecule antagonists of the thyroid receptor (TR) signaling pathway (AID 743065); also: nearly all actives have a fitted effect of over 55% in size
How it was run: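 GH3.TRE-Luc rat pituitary cells carrying two TR response elements driving luciferase were plated for 4 h, given compound plus 1 nM T3 (final), and incubated 23.5 h at 37 C. ONE-Glo luminescence measured reporter inhibition; CellTiter-Fluor fluorescence tracked cytotoxicity.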

[4] = target: Androgen receptor (Homo sapiens) (UniProt P10275); assay: qHTS assay to identify small molecule agonists of the androgen receptor (AR) signaling pathway (AID 743036; active = well fitted activation curve with a large enough effect in the signal ratio in the repeat runs, with a control signal flat, not every such curve was filed as active; inconclusive = weak or mixed curves, or effect the other way; inactive = no such curve, though single readings can be large or run the other way; the % refers to the signal ratio; as to activation: % is scaled to controls: 0 for no effect and ±100 for the full control effect); conditions: HEK293 AR-UAS-bla GripTite, beta-lactamase FRET ratio, 16 h; activation: at 62.4 µM (top of the series) unless noted
Chain of UniProt P10275 (P10275 whole entry, looked up): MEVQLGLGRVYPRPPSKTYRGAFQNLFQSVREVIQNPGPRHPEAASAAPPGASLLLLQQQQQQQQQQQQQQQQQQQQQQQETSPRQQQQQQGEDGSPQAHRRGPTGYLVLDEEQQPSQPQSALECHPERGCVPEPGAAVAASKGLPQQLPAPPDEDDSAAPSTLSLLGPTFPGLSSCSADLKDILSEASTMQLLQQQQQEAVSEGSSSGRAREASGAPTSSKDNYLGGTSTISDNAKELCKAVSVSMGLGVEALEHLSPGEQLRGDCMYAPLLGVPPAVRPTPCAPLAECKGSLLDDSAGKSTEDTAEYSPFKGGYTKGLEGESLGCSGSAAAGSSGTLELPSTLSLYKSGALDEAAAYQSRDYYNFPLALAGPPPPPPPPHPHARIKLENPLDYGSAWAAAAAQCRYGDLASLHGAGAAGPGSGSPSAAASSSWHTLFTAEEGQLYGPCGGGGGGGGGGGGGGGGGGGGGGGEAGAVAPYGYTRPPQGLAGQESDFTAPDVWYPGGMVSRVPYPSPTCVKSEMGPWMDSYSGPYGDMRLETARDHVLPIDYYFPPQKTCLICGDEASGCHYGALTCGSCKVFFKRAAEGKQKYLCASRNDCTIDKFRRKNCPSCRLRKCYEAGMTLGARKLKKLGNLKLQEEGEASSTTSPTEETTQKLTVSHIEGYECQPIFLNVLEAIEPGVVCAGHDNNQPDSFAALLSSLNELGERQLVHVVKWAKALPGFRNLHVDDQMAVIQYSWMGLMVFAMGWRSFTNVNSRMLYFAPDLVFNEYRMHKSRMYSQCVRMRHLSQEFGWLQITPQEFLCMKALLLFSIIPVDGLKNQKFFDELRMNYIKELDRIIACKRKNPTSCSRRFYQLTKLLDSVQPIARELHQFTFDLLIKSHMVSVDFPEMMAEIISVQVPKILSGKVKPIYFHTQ
How it was run: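 AR-bla HEK293 cells, 2,000/well; 4 h preincubation 37C/5% CO2; compound (DMSO) 16 h at 37C; LiveBLAzer B/G FRET substrate 2 h RT; fluorescence intensity read-out.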

[5] = target: Androgen receptor (Homo sapiens) (UniProt P10275); assay: qHTS assay to identify small molecule antagonists of the androgen receptor (AR) signaling pathway (AID 743035; active = well fitted inhibition curve with a large enough effect in the signal ratio in the repeat runs, not every such curve was filed as active; inconclusive = weak or mixed curves, or effect the other way; inactive = no such curve, though single readings can be large or run the other way; the % refers to the signal ratio; as to activity change, negative = inhibition: % is scaled to controls: 0 for no effect and ±100 for the full control effect); conditions: HEK293 AR-UAS-bla, R1881-stimulated, beta-lactamase FRET, 16 h; activity change, negative = inhibition: at 58.5 µM (top of the series) unless noted
How it was run: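 R1881 agonist challenge of a HEK293 UAS-beta-lactamase AR reporter line in the presence of compound (16 h, 37C); signal taken as FRET fluorescence after 2 h with LiveBLAzer B/G substrate at room temperature.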

Aromatase (Homo sapiens) = Aromatase (Homo sapiens) (UniProt P11511); assay: qHTS assay to identify aromatase inhibitors (AID 743083); also: nearly all actives have a fitted effect of over 55% in size
Chain of UniProt P11511 (P11511 whole entry, looked up): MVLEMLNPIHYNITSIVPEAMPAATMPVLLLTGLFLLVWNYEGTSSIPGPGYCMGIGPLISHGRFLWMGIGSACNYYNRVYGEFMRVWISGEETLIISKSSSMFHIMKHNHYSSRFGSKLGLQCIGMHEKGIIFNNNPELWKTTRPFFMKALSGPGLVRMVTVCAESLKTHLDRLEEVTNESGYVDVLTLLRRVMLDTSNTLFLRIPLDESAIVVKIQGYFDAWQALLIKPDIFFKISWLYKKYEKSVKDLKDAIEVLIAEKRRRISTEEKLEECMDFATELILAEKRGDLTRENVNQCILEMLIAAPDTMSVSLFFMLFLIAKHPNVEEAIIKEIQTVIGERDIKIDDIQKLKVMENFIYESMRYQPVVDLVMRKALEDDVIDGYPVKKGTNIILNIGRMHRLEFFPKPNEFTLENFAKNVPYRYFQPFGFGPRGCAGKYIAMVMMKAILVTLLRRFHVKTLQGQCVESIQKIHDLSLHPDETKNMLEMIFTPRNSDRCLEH

[6] = qHTS assay for small molecules that induce genotoxicity in human embryonic kidney cells expressing luciferase-tagged ATAD5 (AID 651632); also: nearly all actives have a fitted effect of over 15% in size; as to activation: % is scaled to controls: 0 for no effect and ±100 for the full control effect
How it was run: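 Concentration-response screen for ATAD5 upregulation in HEK293T luciferase reporter cells; 16 hr treatment at 37C, then luminescence after 30 min with Amplite at room temperature.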

[7] = target: Aryl hydrocarbon receptor (Homo sapiens) (UniProt P35869); assay: qHTS assay to identify small molecule that activate the aryl hydrocarbon receptor (AhR) signaling pathway (AID 743085); also: nearly all actives have a fitted effect of over 15% in size;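 as to activation: HG2L7.5c1 human HepG2 liver cells with stably integrated DRE-driven firefly reporter; % is scaled to controls: 0 for no effect and ±100 for the full control effect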
Chain of UniProt P35869 (P35869 whole entry, looked up): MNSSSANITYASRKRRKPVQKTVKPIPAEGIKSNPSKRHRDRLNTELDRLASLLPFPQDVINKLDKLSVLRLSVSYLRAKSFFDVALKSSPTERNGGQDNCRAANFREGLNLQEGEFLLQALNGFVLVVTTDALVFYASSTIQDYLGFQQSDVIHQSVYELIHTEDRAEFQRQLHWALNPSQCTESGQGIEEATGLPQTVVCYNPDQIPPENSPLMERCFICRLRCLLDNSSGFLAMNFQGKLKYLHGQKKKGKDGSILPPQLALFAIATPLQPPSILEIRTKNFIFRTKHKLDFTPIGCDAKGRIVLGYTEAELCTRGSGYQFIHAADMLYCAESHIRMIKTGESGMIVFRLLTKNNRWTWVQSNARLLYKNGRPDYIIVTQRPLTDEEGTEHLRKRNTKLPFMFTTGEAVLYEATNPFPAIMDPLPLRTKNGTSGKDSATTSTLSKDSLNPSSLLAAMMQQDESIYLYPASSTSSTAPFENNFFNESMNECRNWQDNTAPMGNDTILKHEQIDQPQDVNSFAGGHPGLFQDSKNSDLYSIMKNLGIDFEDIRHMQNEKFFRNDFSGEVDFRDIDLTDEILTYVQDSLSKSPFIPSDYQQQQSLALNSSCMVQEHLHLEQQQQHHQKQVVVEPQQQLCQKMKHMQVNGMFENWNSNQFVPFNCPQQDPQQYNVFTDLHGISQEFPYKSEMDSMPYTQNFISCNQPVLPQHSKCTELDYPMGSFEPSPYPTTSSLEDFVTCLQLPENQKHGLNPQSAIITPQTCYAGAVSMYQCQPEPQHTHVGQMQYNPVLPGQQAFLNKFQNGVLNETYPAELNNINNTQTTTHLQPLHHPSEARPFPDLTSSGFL
How it was run: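 Luminescence read-out: ONE-Glo reagent, 30 min at room temperature, in HG2L7.5c1 HepG2 reporter cells treated 24 h at 37C. Viability was measured beforehand by CellTiter-Fluor fluorescence after 30 min at 37C.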

[8] = qHTS assay for small molecule disruptors of the mitochondrial membrane potential - cell viability (AID 720634; calls by dose curve; also: nearly all actives have a fitted effect of over 20% in size)
How it was run: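 In this qHTS format, HepG2 cells plated overnight were pinned with compound, incubated 1 hr, and assayed for ATP luminescence with CellTiter-Glo after m-MPI dye addition.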

[9] = qHTS assay to identify small molecule that activate the aryl hydrocarbon receptor (AhR) signaling pathway - cell viability counter screen (AID 743086); also: nearly all actives have a fitted effect of over 45% in size
How it was run: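 HepG2-AhR-luc (HG2L7.5c1) cells, 4000/well, were preincubated 5 h at 37C, exposed to compound in qHTS format for 24 hr at 37C, then given CellTiter-Fluor for 30 min; viability was read as fluorescence in the reporter wells.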

[10] = target: Estrogen receptor (Homo sapiens) (UniProt P03372); assay: qHTS assay to identify small molecule agonists of the estrogen receptor alpha (ER-alpha) signaling pathway (AID 743075; calls by dose curve;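 also: HEK293 GripTite cells with ER-alpha and UAS-driven beta-lactamase reporter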); conditions: HEK293 ER-alpha-UAS-bla, beta-lactamase FRET ratio, 18 h; activation: at 70.1 µM (top of the series)
Chain of UniProt P03372 (P03372 whole entry, looked up): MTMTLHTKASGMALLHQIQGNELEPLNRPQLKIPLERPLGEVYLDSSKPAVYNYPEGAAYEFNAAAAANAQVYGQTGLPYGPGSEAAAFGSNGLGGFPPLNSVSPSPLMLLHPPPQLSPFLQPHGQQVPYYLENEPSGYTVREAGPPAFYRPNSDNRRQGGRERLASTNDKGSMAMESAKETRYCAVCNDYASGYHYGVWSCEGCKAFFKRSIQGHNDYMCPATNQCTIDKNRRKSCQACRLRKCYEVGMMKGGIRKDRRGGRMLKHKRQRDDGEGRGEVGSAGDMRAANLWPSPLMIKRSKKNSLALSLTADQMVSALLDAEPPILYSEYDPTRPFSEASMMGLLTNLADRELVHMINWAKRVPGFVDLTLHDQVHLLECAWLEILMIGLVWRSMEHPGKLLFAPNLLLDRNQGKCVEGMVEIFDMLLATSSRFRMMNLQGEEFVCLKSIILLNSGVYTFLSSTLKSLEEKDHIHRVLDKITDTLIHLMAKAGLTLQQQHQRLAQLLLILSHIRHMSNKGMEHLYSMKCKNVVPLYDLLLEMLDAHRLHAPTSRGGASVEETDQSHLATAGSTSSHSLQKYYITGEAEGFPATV

[11] = target: Androgen receptor (Homo sapiens) (UniProt P10275); assay: qHTS assay to identify small molecule antagonists of the androgen receptor (AR) signaling pathway using the MDA cell line (AID 743042; also: nearly all actives have a fitted effect of over 55% in size)
How it was run: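 MDA-kb2 cells (human breast carcinoma, stably carrying an MMTV-luciferase reporter responsive to AR and GR) were plated at 3,000 cells/well and preincubated 5 hr at 37C, then given compound plus R1881 agonist for 16 h. ONE-Glo luminescence was read.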

[12] = qHTS assay to test for compound auto fluorescence at 460 nm (blue) in HEK293 cells (AID 720678)
How it was run: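 Triamterene serves as the blue fluorophore standard. Compound signal at 405/460 nm is read in HEK293 wells (2,000 cells, 10% dialyzed FBS) after overnight treatment at 37C.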

[13] = qHTS assay to test for compound auto fluorescence at 460 nm (blue) in HEK293 cell free culture (AID 720681)
How it was run: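 Test compounds were pinned into cell-free culture medium (DMEM with 10% FBS) and fluorescence was read directly at Ex/Em 405/460 nm. Signals were expressed as fluorescence equivalents of triamterene, with DMSO vehicle as control.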

[14] = qHTS assay to test for compound auto fluorescence at 460 nm (blue) in HepG2 cell free culture (AID 720685)
How it was run: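 Cell-free plates of MEM plus 10% FBS received 23 nL compound or DMSO vehicle; blue-channel (405/460 nm) intensity scored against triamterene as reference fluorophore.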

[15] = qHTS assay to test for compound auto fluorescence at 460 nm (blue) in HepG2 cells (AID 720687)
How it was run: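 Cells (2,000/well in MEM with 10% FBS) attached overnight at 37 C, then were exposed to compound or DMSO for 1 hr at 37 C, 5% CO2. Fluorescence read at Ex/Em 405/460 nm, expressed as triamterene-equivalent signal.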
Potency is read from the fitted curve at half-maximal effect; tags tell the direction and shape of the fitted curve or compound fluorescence and quenching.

Structure (SMILES): O=C(Cn1c(=O)sc2ccc(Cl)cc21)N1CCN(CCO)CC1
- Potency [1]: inactive

Structure (SMILES): CO[C@H]1C[C@H](O[C@@H]2/C(C)=C/C[C@@H]3C[C@@H](C[C@]4(CC[C@H](C)[C@@H](C5CCCCC5)O4)O3)OC(=O)[C@@H]3C=C(C)/C(=N/O)[C@H]4OC/C(=C\C=C\[C@@H]2C)[C@]43O)O[C@@H](C)[C@@H]1O
- Potency [2]: inconclusive [cytotoxic, single point]
- Potency [3]: inconclusive [inhibitor, single point]

Structure (SMILES): CC(CCc1ccc(O)cc1)NCC(O)c1ccc(O)cc1 (configuration not stated)
- Potency [2]: inactive
- Potency [4]: inactive

Structure (SMILES): C=CC[C@@H]1/C=C(\C)C[C@H](C)C[C@H](OC)[C@H]2O[C@@](O)(C(=O)C(=O)N3CCCC[C@H]3C(=O)O[C@H](/C(C)=C/[C@@H]3CC[C@@H](O)[C@H](OC)C3)[C@H](C)[C@@H](O)CC1=O)[C@H](C)C[C@@H]2OC
- Potency [1]: inconclusive [falling, partial curve, poor fit]
- Potency [5]: active: 16.9 µM
- Potency [4]: inactive
- Potency (Aromatase (Homo sapiens)): inconclusive [inhibitor, partial curve]

Structure (SMILES): CCCCC(C)(O)C/C=C/[C@H]1[C@H](O)CC(=O)[C@@H]1CCCCCCC(=O)OC (some centres not stated)
- Potency [6]: inconclusive [activator, full curve, poor fit]

Structure (SMILES): NC(Cc1ccccc1)C(=O)O (configuration not stated)
- Potency [6]: inconclusive [activator, partial curve, poor fit]
- Potency [7]: inconclusive [activator, partial curve, poor fit]

Structure (SMILES): CCCCC(O)c1ccccc1 (configuration not stated)
- Potency [2]: active: 26.6 µM

Structure (SMILES): Oc1cc(O)cc(O)c1
- Potency [1]: inactive
- Potency [5]: inactive

Structure (SMILES): C[C@H](CCCC(C)(C)O)[C@H]1CC[C@H]2[C@@H]3CC=C4C[C@@H](O)CC[C@]4(C)[C@H]3CC[C@]12C
- Potency [6]: inactive
- activity change, negative = inhibition [5]: inconclusive: 21.1%
- activation [4]: inconclusive: 3.41%

Structure (SMILES): CC(C)CCCC(C)NC(C)C (configuration not stated)
- Potency [2]: inactive

Structure (SMILES): CC(C)(COP(=O)(O)OP(=O)(O)OC[C@H]1O[C@@H](n2cnc3c(N)ncnc32)[C@H](O)[C@@H]1OP(=O)(O)O)C(O)C(=O)NCCC(=O)NCCS (some centres not stated)
- Potency [2]: inactive
- Potency [7]: inconclusive [activator, partial curve, poor fit]

Structure (SMILES): O=C(Nc1ccc(Br)cc1)c1cc(Br)c(Br)s1
- Potency [1]: inconclusive [falling, partial curve, poor fit]
- Potency [8]: active: 3.35 µM
- Potency [9]: inconclusive [falling, single point]

Structure (SMILES): O=C1CC[C@@H](C(=O)N[C@H]2C[C@@H]2c2ccccc2)N1
- Potency [2]: inactive

Structure (SMILES): CCCC1([C@H](O)C/C=C/[C@H]2[C@H](O)CC(=O)[C@@H]2CCCCCCC(=O)OC)CCC1
- Potency [2]: active: 29.8 µM
- Potency [8]: inconclusive [cytotoxic, partial curve, poor fit]
- Potency [5]: inconclusive [rising, partial curve, poor fit]
- Potency [4]: inconclusive [rising, full curve]
- Potency [3]: active: 26.6 µM
- Potency [10]: inconclusive [fluorescent, partial curve]
- Potency (Aromatase (Homo sapiens)): inconclusive [inhibitor, partial curve]

Structure (SMILES): CCCCCCCC(=O)CC[C@@H]1[C@@H](C/C=C\CCCC(=O)OC(C)C)[C@@H](O)C[C@H]1O
- Potency [2]: inconclusive [cytotoxic, single point]
- Potency [1]: inconclusive [falling, single point]
- Potency [8]: active: 26.6 µM
- Potency (Aromatase (Homo sapiens)): inconclusive [inhibitor, partial curve, poor fit]

Structure (SMILES): CC1=C[C@H](O)CC(C)(C)[C@H]1/C=C/C(C)=C/C=C/C(C)=C/C=C/C=C(C)/C=C/C=C(C)/C=C/C1=C(C)C[C@@H](O)CC1(C)C
- Potency [2]: inconclusive [cytotoxic, partial curve, poor fit]
- activity change, negative = inhibition [5]: inconclusive: 66.8%
- Potency [11]: inconclusive [inhibitor, partial curve]

Structure (SMILES): C#CCC(Cc1cnc2nc(N)nc(N)c2n1)c1ccc(C(=O)N[C@@H](CCC(=O)O)C(=O)O)cc1 (some centres not stated)
- Potency [6]: inactive
- Potency [12]: inconclusive [fluorescent, single point]
- Potency [13]: inconclusive [rising, single point]
- Potency [14]: inconclusive [fluorescent, single point]
- Potency [15]: inconclusive [fluorescent, single point]
- Potency [4]: inconclusive [fluorescent, full curve, poor fit]

Structure (SMILES): C=Cc1c(C)c2cc3nc(cc4[nH]c(cc5nc(cc1[nH]2)C(C)=C5CCC(=O)OC)c(CCC(=O)O)c4C)[C@@]1(C)C3=CC=C(C(=O)OC)[C@H]1C(=O)OC
- Potency [1]: inconclusive [falling, partial curve, poor fit]
- Potency [3]: inconclusive [inhibitor, single point]
- Potency [7]: inconclusive [activator, partial curve, poor fit]

Structure (SMILES): CC[C@H]1NC(=O)[C@@H](NC(=O)c2ncccc2O)[C@@H](C)OC(=O)[C@H](c2ccccc2)NC(=O)[C@@H]2CC(=O)CCN2C(=O)[C@H](Cc2ccccc2)N(C)C(=O)[C@@H]2CCCN2C1=O
- Potency [5]: inactive
- Potency [7]: inactive

Structure (SMILES): CC1(S(=O)(=O)O)CC(=O)c2ccccc2C1=O (configuration not stated)
- Potency [12]: inconclusive [fluorescent, partial curve, poor fit]
- Potency [5]: inconclusive
- activation [4]: inconclusive: 8.68%
- Potency [10]: inconclusive [fluorescent]
- Potency (Aromatase (Homo sapiens)): active: 26.6 µM
- Potency [7]: active: 10.6 µM

Structure (SMILES): NC[C@@H]1CC[C@@H](N)[C@@H](O[C@H]2[C@H](O)[C@@H](O[C@H]3O[C@H](CO)[C@@H](O)[C@H](N)[C@H]3O)[C@H](N)C[C@@H]2N)O1
- Potency [8]: inactive
